# Data from the supplement of paper PMC8728848.
# This is one part of the list.
# B1: B1257 (Bifidobacterium sp) (protein)
# chain: MKKSIRLVAAIAALAMTAGISACGSSTNGNQAKSDVTAQDVETALTDTSKNVELTVWAYSAKQMEPTVKAFEKKYPHIKINFVNTGAAGDHFTKFQNVVQAQKDIPDVVQMGANKFQQFAVSGALLNFANDSIEKAWSKLYTKTAWAQVHYAGGLYGAPQDATPLANYVRKDILDEHNLQVPESWEDIYNEGIKLHKEDSNKYMGILGSDISFFTNLYRSVGARLWKVNSVDDVELTMNSGKAKEFTEFLQKCLKDGVLEGGTVFTDEFNRSINDGRYATFINENWMGNTYKEQNPSLKGKMVVAAPPSWKGQPYQSSSVGSMMSVSAACPKEKQAAALAFINWLDSDKDAIQSWQDTNNGNFFMAASVYQDDENQRNKKETDGYYANDDVNAVYFDSMDKVNTDWEYLPFMSQVEVVFNDVIVPQMNENGDLVGAMAKAQQELKTYAKDNGFKVTTDAD
# Columns and labels:
# Experiment in all cases: glycan array binding signal (z-score within array); higher = stronger binding
# Details in all cases: glycan notation: IUPAC condensed, linker removed
# [1] = biological target: Neu5Ac(a2-6)Gal(b1-4)GlcNAc(b1-2)Man(a1-3)[Man(a1-6)]Man(b1-4)GlcNAc(b1-4)GlcNAc
# How it was run: (§1)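 Arrays were curated from the Consortium for Functional Glycomics database, 3228 in total, and kept only where the protein sequence was available. Binding is expressed as a within-array Z-score. This score was averaged across arrays of the same protein sequence at different concentrations or buffers and across linkers, and negative values can be read as non-binding.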
# [2] = biological target: Neu5Ac(a2-6)Gal(b1-4)GlcNAc(b1-2)Man(a1-3)[Neu5Ac(a2-3)Gal(b1-4)GlcNAc(b1-2)Man(a1-6)]Man(b1-4)GlcNAc(b1-4)GlcNAc
# How it was run: as §1
# [3] = biological target: Neu5Ac(a2-6)Gal(b1-4)GlcNAc(b1-2)Man(a1-3)[Neu5Ac(a2-6)Gal(b1-4)GlcNAc(b1-2)Man(a1-6)]Man(b1-4)GlcNAc(b1-4)GlcNAc
# How it was run: as §1
# [4] = biological target: Neu5Ac(a2-6)Gal(b1-4)GlcNAc(b1-2)Man(a1-3)[Neu5Ac(a2-6)Gal(b1-4)GlcNAc(b1-2)Man(a1-6)]Man(b1-4)GlcNAc(b1-4)[Fuc(a1-6)]GlcNAc
# How it was run: as §1
# [5] = biological target: Neu5Ac(a2-6)Gal(b1-4)GlcNAc(b1-2)Man(a1-6)Man(b1-4)GlcNAc(b1-4)GlcNAc
# How it was run: as §1
# [6] = biological target: Neu5Ac(a2-6)Gal(b1-4)GlcNAc(b1-2)Man(a1-6)[Gal(b1-4)GlcNAc(b1-2)Man(a1-3)]Man(b1-4)GlcNAc(b1-4)GlcNAc
# How it was run: as §1
# [7] = biological target: Neu5Ac(a2-6)Gal(b1-4)GlcNAc(b1-2)Man(a1-6)[GlcNAc(b1-2)Man(a1-3)]Man(b1-4)GlcNAc(b1-4)GlcNAc
# How it was run: as §1
# [8] = biological target: Neu5Ac(a2-6)Gal(b1-4)GlcNAc(b1-2)Man(a1-6)[Man(a1-3)]Man(b1-4)GlcNAc(b1-4)GlcNAc
# How it was run: as §1
# [9] = biological target: Neu5Ac(a2-6)Gal(b1-4)GlcNAc(b1-2)[Neu5Ac(a2-6)Gal(b1-4)GlcNAc(b1-4)]Man(a1-3)[GlcNAc(b1-4)][Neu5Ac(a2-6)Gal(b1-4)GlcNAc(b1-2)[Neu5Ac(a2-6)Gal(b1-4)GlcNAc(b1-6)]Man(a1-6)]Man(b1-4)GlcNAc(b1-4)GlcNAc
# How it was run: as §1
# [10] = biological target: Neu5Ac(a2-6)Gal(b1-4)GlcNAc(b1-2)[Neu5Ac(a2-6)Gal(b1-4)GlcNAc(b1-4)]Man(a1-3)[GlcNAc(b1-4)][Neu5Ac(a2-6)Gal(b1-4)GlcNAc(b1-4)Man(a1-6)]Man(b1-4)GlcNAc(b1-4)GlcNAc
# How it was run: as §1
# [11] = biological target: Neu5Ac(a2-6)Gal(b1-4)GlcNAc(b1-2)[Neu5Ac(a2-6)Gal(b1-4)GlcNAc(b1-6)]Man(a1-6)[Neu5Ac(a2-6)Gal(b1-4)GlcNAc(b1-2)Man(a1-3)][GlcNAc(b1-4)]Man(b1-4)GlcNAc(b1-4)GlcNAc
# How it was run: as §1
# [12] = biological target: Neu5Ac(a2-6)Gal(b1-4)GlcNAc(b1-3)Gal(b1-3)GlcNAc
# How it was run: as §1
# [13] = biological target: Neu5Ac(a2-6)Gal(b1-4)GlcNAc(b1-3)Gal(b1-4)GlcNAc
# How it was run: as §1
# [14] = biological target: Neu5Ac(a2-6)Gal(b1-4)GlcNAc(b1-3)Gal(b1-4)GlcNAc(b1-2)Man(a1-3)[Neu5Ac(a2-6)Gal(b1-4)GlcNAc(b1-3)Gal(b1-4)GlcNAc(b1-2)Man(a1-6)]GalNAc
# How it was run: as §1
# [15] = biological target: Neu5Ac(a2-6)Gal(b1-4)GlcNAc(b1-3)Gal(b1-4)GlcNAc(b1-3)Gal(b1-4)GlcNAc
# How it was run: as §1
# [16] = biological target: Neu5Ac(a2-6)Gal(b1-4)GlcNAc(b1-3)Gal(b1-4)GlcNAc(b1-3)Gal(b1-4)GlcNAc(b1-2)Man(a1-3)[Neu5Ac(a2-6)Gal(b1-4)GlcNAc(b1-3)Gal(b1-4)GlcNAc(b1-3)Gal(b1-4)GlcNAc(b1-2)Man(a1-6)]GalNAc
# How it was run: as §1
# [17] = biological target: Neu5Ac(a2-6)Gal(b1-4)GlcNAc(b1-3)Gal(b1-4)GlcNAc(b1-3)GalNAc
# How it was run: as §1
# [18] = biological target: Neu5Ac(a2-6)Gal(b1-4)GlcNAc(b1-3)Gal(b1-4)GlcNAc(b1-3)[Neu5Ac(a2-6)Gal(b1-4)GlcNAc(b1-3)Gal(b1-4)GlcNAc(b1-6)]GalNAc
# How it was run: as §1
# [19] = biological target: Neu5Ac(a2-6)Gal(b1-4)GlcNAc(b1-3)Gal(b1-4)GlcNAc(b1-6)[Gal(b1-3)]GalNAc
# How it was run: as §1
# [20] = biological target: Neu5Ac(a2-6)Gal(b1-4)GlcNAc(b1-3)Gal(b1-4)[Fuc(a1-3)]GlcNAc(b1-3)Gal(b1-4)[Fuc(a1-3)]GlcNAc
# How it was run: as §1
# [21] = biological target: Neu5Ac(a2-6)Gal(b1-4)GlcNAc(b1-3)GalNAc
# How it was run: as §1
# [22] = biological target: Neu5Ac(a2-6)Gal(b1-4)GlcNAc(b1-3)[Neu5Ac(a2-6)Gal(b1-4)GlcNAc(b1-6)]GalNAc
# How it was run: as §1
# [23] = biological target: Neu5Ac(a2-6)Gal(b1-4)GlcNAc(b1-6)GalNAc
# How it was run: as §1
# [24] = biological target: Neu5Ac(a2-6)Gal(b1-4)GlcNAc(b1-6)[Gal(b1-3)GlcNAc(b1-3)]Gal(b1-4)Glc
# How it was run: as §1
# [25] = biological target: Neu5Ac(a2-6)Gal(b1-4)GlcNAc(b1-6)[Gal(b1-3)]GalNAc
# How it was run: as §1
# [26] = biological target: Neu5Ac(a2-6)Gal(b1-4)GlcNAc6S
# How it was run: as §1
# Neu5Ac(a2-6)GalNAc = biological target: Neu5Ac(a2-6)GalNAc
# How it was run: as §1
# [27] = biological target: Neu5Ac(a2-6)GalNAc(b1-4)GlcNAc
# How it was run: as §1
# [28] = biological target: Neu5Ac(a2-6)GalNAc(b1-4)GlcNAc6S
# How it was run: as §1
# [29] = biological target: Neu5Ac(a2-6)GlcNAc(b1-4)GlcNAc
# How it was run: as §1
# [30] = biological target: Neu5Ac(a2-6)GlcNAc(b1-4)GlcNAc(b1-4)GlcNAc
# How it was run: as §1
binder,measurement,setting,value
B1,glycan array binding signal (z-score),[1],-0.015
same,glycan array binding signal (z-score),[2],-0.163
same,glycan array binding signal (z-score),[3],-0.113
same,glycan array binding signal (z-score),[4],0.024
same,glycan array binding signal (z-score),[5],-0.101
same,glycan array binding signal (z-score),[6],-0.122
same,glycan array binding signal (z-score),[7],-0.118
same,glycan array binding signal (z-score),[8],-0.099
same,glycan array binding signal (z-score),[9],-0.022
same,glycan array binding signal (z-score),[10],0.094
same,glycan array binding signal (z-score),[11],-0.059
same,glycan array binding signal (z-score),[12],-0.111
same,glycan array binding signal (z-score),[13],-0.051
same,glycan array binding signal (z-score),[14],-0.059
same,glycan array binding signal (z-score),[15],-0.129
same,glycan array binding signal (z-score),[16],0.344
same,glycan array binding signal (z-score),[17],-0.144
same,glycan array binding signal (z-score),[18],0.073
same,glycan array binding signal (z-score),[19],-0.049
same,glycan array binding signal (z-score),[20],-0.047
same,glycan array binding signal (z-score),[21],0.022
same,glycan array binding signal (z-score),[22],-0.02
same,glycan array binding signal (z-score),[23],0.171
same,glycan array binding signal (z-score),[24],-0.136
same,glycan array binding signal (z-score),[25],-0.046
same,glycan array binding signal (z-score),[26],-0.126
same,glycan array binding signal (z-score),Neu5Ac(a2-6)GalNAc,-0.045
same,glycan array binding signal (z-score),[27],-0.178
same,glycan array binding signal (z-score),[28],0.053
same,glycan array binding signal (z-score),[29],-0.027
same,glycan array binding signal (z-score),[30],-0.081
